The list shows a part of the results. Single values of this set are uncertain.
Tested on: U2OS
Assay: Cell Painting induction (percent of morphological features significantly changed vs DMSO); higher = stronger morphological change
Settings: 10 µM, 20 h
Protocol: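 Cell Painting assay in U2OS cells: compounds at 10 µM for 20 h, six dyes, 579 robust CellProfiler features as Z-scores vs DMSO median (MAD). Induction is the % of significantly changed features (active if ≥5%); relative cell count is in % of DMSO. The primary run holds DCM compounds preselected for induction ≥10%; the confirmation repeat defines active compounds (370 of 549). Replicate agreement is low, attributed to precipitation.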

[1] = run: primary screen (compounds selected for induction >=10%)
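Further: stains mark DNA, RNA and nucleoli, ER, actin, Golgi, plasma membrane and mitochondria, read by high-content imaging, with DMSO controls at matching solvent concentration.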

Compound | Cell Painting induction (run: confirmation repeat) | Cell Painting induction [1]
COc1ccc(Br)cc1C(=O)Nc1ccc(NC(=O)c2ccco2)cc1 | active: 33% | 48%
COc1ccccc1NC(=O)c1cnc2c(-c3ccccc3)c(C)nn2c1C | active: 7.6% | 15.5%
CC1CCN(S(=O)(=O)c2ccc3c(c2)N(CC(=O)NCCCN2CC(C)CC(C)C2)C(=O)CS3)CC1 (stereo not drawn) | active: 51.8% | 53.7%
COc1ccc(OC)c(-c2oc3ccccc3c(=O)c2O)c1 | active: 11.6% | 13%
COc1ccc(-c2cc(C(F)F)n3ncc(C(=O)Nc4cnn(Cc5ccccc5)c4)c3n2)cc1 | inactive: 0% | 34.7%
O=C1CC(NCCN2CCOCC2)C(=O)N1Cc1ccc(N2CCCC2=O)cc1 (stereo not drawn) | active: 17.1% | 19.5%
CCCCN(CC)CCNC(=O)c1cc2c(=O)[nH]c3ccccc3c2n1C | active: 5.5% | 35.6%
CCOc1ccc(NC(=O)c2nnn(CC(=O)Nc3ccccc3OCC)c2N)cc1 | active: 11.6% | 21.1%
COC(=O)c1cc(S(=O)(=O)NCC2CCN(Cc3cc(C)ccc3C)CC2)cn1C | active: 11.6% | 12.4%
O=C(NCCN1CCC(Cc2ccccc2)CC1)C1CCN(S(=O)(=O)N2CCC3(CC2)OCCO3)CC1 | active: 10.4% | 22.3%
Cc1ccc(Sc2cc(C(=O)NCCN(C)C)c3ccccc3n2)cc1 | active: 28.8% | 41.1%
CC1CCCN(CCCNC(=O)c2cn(C)c3ccc(S(=O)(=O)N(C)C4CCCCC4)cc3c2=O)C1 (stereo not drawn) | active: 76.5% | 57.9%
O=C(c1ccccc1)c1ccc(N2CCN(C(=O)c3cccc(F)c3F)CC2)c(F)c1 | active: 9.3% | 11.9%
CCC1=Nc2cc(C(=O)NCCCN3CCOCC3)ccc2Sc2ccc(Br)cc21 | active: 50.6% | 37.5%
CC1=C(C(=O)OCC2CCCO2)C(c2ccc(C)cc2)C2=C(O)CC(C)(C)CC2=N1 (stereo not drawn) | active: 8.3% | 12.4%
Cc1ccc(NC(=O)CN(C2=NC3CS(=O)(=O)CC3S2)c2ccccc2)cc1 (stereo not drawn) | active: 27.3% | 27.3%
CCOC(=O)Cn1c(CN(Cc2ccccc2)Cc2ccccc2)nc2c1c(=O)[nH]c(=O)n2C | inactive: 1.6% | 21.2%

Compound | Cell Painting induction (run: confirmation repeat) | Cell Painting induction [1]
COc1ccc(CN2CCN(C(=O)c3ccc(CNS(=O)(=O)c4ccc(C)cc4)cc3)CC2)c(OC)c1OC | active: 40.9% | 35.8%
Cc1sc2ncn(CC(=O)NCCCN3CC(C)CC(C)C3)c(=O)c2c1S(=O)(=O)N1CC(C)CC(C)C1 (stereo not drawn) | active: 66.7% | 57.9%
CCOc1cc2[nH]c(=S)n(CCN3CCCCC3CC)c(=O)c2cc1OCC (stereo not drawn) | active: 35.9% | 42%
COc1cc(-c2nc(S(=O)(=O)c3ccc(Cl)cc3)c(N(C)C)o2)cc(OC)c1OC | inactive: 1% | 19.2%
CCOC(=O)c1cnc2c(C)cccc2c1Nc1ccc(N2CCOCC2)cc1 | inactive: 4.5% | 10%
O=C(Nc1ccc(Br)cc1)C1[C@@H]2C=C[C@]3(O2)C(C(=O)NC2CCCCC2)N(CCN2CCCCC2)C(=O)[C@H]13 (stereo partly drawn) | active: 53.9% | 52.3%
COc1ccccc1CCNC(=O)CCCn1nc(C)c2c(C)n(-c3ccc(C)cc3)nc2c1=O | active: 17.4% | 11.1%
O=C(c1ccc(Cn2c(=S)[nH]c3cc4c(cc3c2=O)OCO4)cc1)N1CCN(c2ccccc2)CC1 | active: 47.8% | 29.7%
CCc1ccc(NC(=O)c2nnn(-c3ccc(OC)c(Cl)c3)c2C)cc1 | active: 6.7% | 19.3%
CO/C(O)=C1\C(C)=Nc2ncnn2C1c1ccc(OC(=O)c2ccccc2)cc1 (stereo not drawn) | active: 20.6% | 11.7%
CCOc1ccc(C(=O)Nc2ccc(C(C)C)cc2)cc1OCC | active: 23% | 18%
Cc1cc2oc(C(=O)NCC(c3ccco3)N3CCCC3)c(C)c2cc1C (stereo not drawn) | active: 45.6% | 52.8%
COc1ccccc1-c1c(C)nn2c(N3CCN(c4ccccc4OC)CC3)cc(C)nc12 | inactive: 0.7% | 22.1%
CCCN1CCN(CCCNC(=O)CN2C(=O)COc3ccc(C(C)(C)C)cc32)CC1 | inactive: 3.8% | 13.1%
CCCCCCNC(=O)c1ccc(CNS(=O)(=O)c2ccc(OC)cc2)cc1 | active: 25.6% | 15.2%
O=C(CNC(=S)N(CCCN1CCOCC1)Cc1cccs1)NC1CCCCC1 | active: 9% | 10.2%
COc1ccccc1N1CCN(S(=O)(=O)c2ccc(-c3cnc(C4CC4)o3)cc2)CC1 | active: 44.7% | 34.4%
